Experimental data: PubChem BioAssay AID1346428 (National Center for Advancing Translational Sciences (NCATS), 2018)
The campaign covered roughly 48,000 compounds. About 1,200 (2.5%) were called active. Inconclusive results (about 2%) are left out.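 The calls were made as follows: active = activation of at least 60% and not above a set upper limit (about 1 call in 100 departs from these limits); inconclusive = activation of 40% to 60%, or above that upper limit; inactive = activation under 40%.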 The list shows a part of the results.

Each compound was assayed against Probable G-protein coupled receptor 32 (Homo sapiens) (UniProt O75388) (assay: qHTS for Agonists of Human Resolvin D1 Receptor DRV1). Conditions: CHO-K1 GPR32 beta-arrestin PathHunter luminescence, 90 min; at 76.9 µM; hits give high values; zero percent set by DMSO-only wells.
Chain of UniProt O75388 (O75388 whole entry, looked up): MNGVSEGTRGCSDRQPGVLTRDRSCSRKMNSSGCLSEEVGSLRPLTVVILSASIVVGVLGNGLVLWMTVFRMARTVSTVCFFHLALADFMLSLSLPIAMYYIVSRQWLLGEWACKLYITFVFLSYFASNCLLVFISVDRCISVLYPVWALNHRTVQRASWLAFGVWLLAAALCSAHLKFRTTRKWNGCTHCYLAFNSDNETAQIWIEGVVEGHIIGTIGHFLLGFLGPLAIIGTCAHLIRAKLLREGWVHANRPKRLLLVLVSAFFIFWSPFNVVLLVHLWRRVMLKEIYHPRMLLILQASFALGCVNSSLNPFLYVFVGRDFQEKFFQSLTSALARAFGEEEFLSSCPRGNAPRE
Procedure, shortened: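 Beta-arrestin recruitment read-out: luminescence from complemented beta-Gal in CHO-K1 GPR32 PathHunter cells, measured 1 h after detection reagent at ambient temperature following 90 min compound exposure at 37 °C; DMSO served as basal (EC0) control.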
Also: 0% is about no effect.

Compound	activation
COc1cccc(C(=O)NCc2nc(-c3ccccc3)no2)c1OC	inactive: 32.2%
Cn1c(=O)c2c(ncn2CC(=O)Nc2cccc(C(F)(F)F)c2)n(C)c1=O	inactive: 21.5%
Cc1cccc(NC(=O)CCc2c(C)nc3nc(CNC(=O)c4cccc(F)c4)nn3c2C)c1	inactive: 6.37%
COc1ccc(Cn2c(SCc3ccc(C(=O)NC4CCCC4)cc3)nc3cccnc32)cc1	inactive: -6.28%
Cc1oc(-c2ccccc2)nc1CCC(=O)c1ccc(CC2SC(=O)NC2=O)cc1 (configuration not stated)	active: 74.4%
O=C(Cn1c(=O)n(Cc2ccc3c(c2)OCO3)c(=O)c2oc3ccccc3c21)Nc1ccc(F)cc1	inactive: -24.7%
COc1ccc(-c2noc(CSc3nnc(-c4ccncc4)n3-c3ccc(C)cc3)n2)cc1OC	inactive: 35.6%
CCOC(=O)c1c(C)oc2nc(C)nc(NCc3ccc(Cl)cc3)c12	inactive: -3.98%
CCn1cc(C(=O)N2CCN(c3ccccc3F)CC2)c(=O)c2cc(S(=O)(=O)N(C)C3CCCCC3)ccc21	inactive: 6.05%
Cc1cccc(NC(=O)CSc2nc(-c3ccco3)nc3cc(=O)[nH]n23)c1	inactive: -9.52%
Cc1cccc(NC(=O)c2nc(S(C)(=O)=O)ncc2Cl)c1	inactive: -9.5%
COc1cc(NC(=O)c2ccccc2)ccc1NC(=O)c1cc2ccccc2o1	inactive: 30.4%
COc1ccc(-c2cc3ccc(O)c(CN4CCOCC4)c3oc2=O)cc1	inactive: 25.6%
CC(=O)N1CCc2cc(Br)cc(S(=O)(=O)N3CCC(C(=O)N(C)c4cc(C)ccc4C)CC3)c21	inactive: -11.8%
COC(=O)c1c(SC)nc2ccccc2c1OCc1ccccc1C	inactive: -18.3%
COc1ccc(-c2ccc3c(N)c(C(=O)NCc4ccc(Cl)cc4)sc3n2)cc1	inactive: 2.93%
O=C(CCn1c(=O)c2ccccc2n(Cc2ccc(F)cc2Cl)c1=O)NCc1ccc2c(c1)OCO2	inactive: 2.02%
CCc1ccc(NC(=O)C2CCN(S(=O)(=O)c3ccc4[nH]c5c(c4c3)CCCCC5)CC2)cc1	inactive: -2.32%
CCOC(=O)C1CCN(C(=O)C2CCN(C3=NS(=O)(=O)C(c4ccc(C)cc4)=C3CC)CC2)CC1	inactive: -4.91%
Cc1cccc(C)c1NC(=O)Cn1c(=O)n(CC2CCC(C(=O)NCCc3ccccc3)CC2)c(=O)c2ccccc21 (configuration not stated)	inactive: -1.2%
CC(=O)c1ccc(S(=O)(=O)Nc2cccc(-c3ccc(N4CCCCC4)nn3)c2)cc1	inactive: 1.91%
Cn1cc(S(=O)(=O)N2CCCCCC2)cc1C(=O)N1CCN(c2cccc(Cl)c2)CC1	inactive: -8.96%
CCOC(=O)CSc1nc2c(sc3ccccc32)c(=O)n1CCc1ccccc1	inactive: 14.1%
Cc1ccc(CNC(=O)C2CCN(c3nc4ccccc4n(C)c3=O)CC2)cc1	inactive: 5.55%
O=[N+]([O-])c1cc(-c2nc(-c3ccccc3)no2)ccc1N1CCN(c2ccccc2)CC1	inactive: -3.17%
Cc1ccc(Cl)cc1N1CCN(C(=O)CCC(=O)Nc2ccc3nc(N4CCC(C)CC4)cc(C)c3c2)CC1	inactive: -5.07%

Compound	activation
Cc1ccc(C(=O)O)cc1Nc1nc2ccccc2n2nnnc12	inactive: 10.4%
CCCOc1ccc(CNC(=O)C(CC)n2nc(C)c3sc4ccccc4c3c2=O)cc1 (configuration not stated)	inactive: -18.3%
CCOc1ccc2nc(C)cc(Nc3ccccc3OCC)c2c1	active: 90%
Cc1ccc(NC(=O)Cn2nnc(-c3nc(-c4ccncc4)no3)c2N)cc1	inactive: 9.68%
O=C(O)c1cc(=O)cc(C(=O)O)[nH]1	inactive: 5.88%
O=S(=O)(c1ccccc1)c1nc(-c2cccs2)oc1SCc1ccccc1F	inactive: -24.5%
CCC(C)(C)C1CCc2c(sc(NC(=O)C3c4ccccc4Oc4ccccc43)c2C(N)=O)C1 (configuration not stated)	inactive: 1.96%
Cc1ccccc1NC(=O)CCn1cnc2onc(-c3ccc(F)cc3)c2c1=O	inactive: 0.571%
CCCCC(CC)CNC(=O)C1CCN(S(=O)(=O)c2cccc3nsnc23)CC1 (configuration not stated)	inactive: 0.934%
Cc1ccc(C)c(N2CCN(CCCNC(=O)Cn3ncc4c5ccccc5n(C)c4c3=O)CC2)c1	inactive: -9.82%
CCOc1ccc(NC(=O)CCn2cnc3onc(-c4ccc(F)cc4)c3c2=O)cc1	inactive: 44.3%
N#Cc1nc(-c2ccc(COc3ccc(Cl)cc3)o2)oc1N1CCN(c2ccccc2)CC1	inactive: -0.197%
COc1ccccc1N1CCN(C(=O)c2cc3c(=O)n(Cc4ccco4)ccc3nc2C)CC1	inactive: -3.73%
Cc1ccc(NS(=O)(=O)c2c(C(=O)N3CCC(C)CC3)c(C)n(C)c2C)cc1Cl	inactive: -12.6%
O=C(O)[C@@H](O)[C@H](O)[C@H](O)[C@@H](O)C(=O)O	inactive: -10%
CCOC(=O)c1c(S(=O)(=O)N2CCCC(C(=O)N3CCN(c4cccc(C)c4C)CC3)C2)c(C)n(C)c1C (configuration not stated)	inactive: 9.77%
Cc1ccc(CN2CCSc3ccc(C(=O)N4CCN(c5cc(C)ccc5C)CC4)cc32)cc1	inactive: -10.2%
O=C(CSc1nc2c(oc3ccccc32)c(=O)n1-c1ccccc1F)Nc1ccccc1	inactive: 14%
OC[C@H]1O[C@H](O[C@]2(CCl)O[C@H](CCl)[C@@H](O)[C@@H]2O)[C@H](O)[C@@H](O)[C@H]1Cl	inactive: 6.43%
Cc1ccc(Nc2c3c(nc4nncn24)CCC3)cc1C	inactive: -14.4%
Cn1c(=O)cc(SCC(=O)N2CCN(c3ccc(F)cc3)CC2)c2ccc(Cl)cc21	inactive: 8.85%
CC(C)CN1CCc2nc(N3CCN(C)CC3)ncc2C1	inactive: -4.27%
CCOc1cc(S(=O)(=O)n2ccnc2C(C)C)ccc1Cl	inactive: -7.64%
O=C(CN1C(=O)COc2ccc(S(=O)(=O)N3CCOCC3)cc21)NCc1ccc(F)cc1	inactive: -15.6%
CN(Cc1ccccc1)C(=O)C1CCN(S(=O)(=O)Cc2ccccc2)CC1	inactive: 44.4%
COc1cc(OC)c(N(C)C(=O)Cn2ncc3c([nH]c4ccccc43)c2=O)cc1Cl	inactive: 27.8%
